According to PubChem BioAssay (NCATS):
The inconclusive results got no clear call from the source; some entries with a clear call stand among them for comparison. For some of these results: Potencies beside an inconclusive call are fits to weak or partial responses and may not hold up. The source made the active and inactive calls. Unless noted, calls come from the whole dose curve; as a rule, active = well fitted curve in the direction sought with a large enough effect; inconclusive = small, poorly fitted or top-dose-only effect, or another doubt; inactive = no such curve, though single readings can be large; an effect the other way counts as inactive or inconclusive.

Key:
[1] = qHTS of pediatric cancer cell lines to identify multiple opportunities for drug repurposing: Primary screen for DAOY cells (AID 1347090); conditions: DAOY medulloblastoma viability, CellTiter-Glo luminescence, 48 h; activity change, negative = cytotoxic: at 46 µM (top of the series); note: potency is the fitted concentration of half-maximal effect; nearly all actives have a fitted effect of over 55% in size
Procedure, shortened: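 Cell viability, CellTiter-Glo luminescence; 500-1,000 cells/well, 8- or 11-point titration, 48 h compound exposure at 37 degrees C, 5% CO2. Controls: DMSO neutral, bortezomib 2.3 µM final as positive.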

[2] = qHTS of pediatric cancer cell lines to identify multiple opportunities for drug repurposing: Primary screen for BT-37 cells (AID 1347094); note: potency is the fitted concentration of half-maximal effect
Procedure, shortened: (§1)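 ATP-based luminescence (CellTiter-Glo) quantifies viability after a 48-hour exposure. Compounds are dosed across 8 or 11 final concentrations; DMSO and 2.3 µM bortezomib serve as controls.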

[3] = qHTS of pediatric cancer cell lines to identify multiple opportunities for drug repurposing: Primary screen for NB1643 cells (AID 1347099); note: potency is the fitted concentration of half-maximal effect; nearly all actives have a fitted effect of over 50% in size
Procedure, shortened: as §1

[4] = qHTS of pediatric cancer cell lines to identify multiple opportunities for drug repurposing: Primary screen for BT-12 cells (AID 1347101); note: nearly all actives have a fitted effect of over 25% in size; note: potency is the fitted concentration of half-maximal effect
Procedure, shortened: (§2)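 Cells (500-1,000/well) rested 5 h, then received compounds for 48 h; metabolically active cells were measured by CellTiter-Glo luminescence. Final concentrations spanned up to 46 µM (MIPE, 11-point) or 0.59 nM-46 µM (NPC, 8-point) in primary screens, 11-point in follow-ups.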

[5] = qHTS of pediatric cancer cell lines to identify multiple opportunities for drug repurposing: Primary screen for Rh18 cells (AID 1347102); note: potency is the fitted concentration of half-maximal effect; nearly all actives have a fitted effect of over 65% in size
Procedure, shortened: as §2

[6] = qHTS of pediatric cancer cell lines to identify multiple opportunities for drug repurposing: Primary screen for Rh41 cells (AID 1347108); note: potency is the fitted concentration of half-maximal effect; nearly all actives have a fitted effect of over 70% in size
Procedure, shortened: as §1

[7] = qHTS to identify inhibitors of the type 1 interferon - major histocompatibility complex class I in skeletal muscle: primary screen against the NCATS Mechanism Interrogation Plate v5.0 (MIPE) Libary (AID 1347411); conditions: iHSKM cells + IFN-b, HiBiT-tagged MHC-I luminescence, 24 h; activity change, negative = inhibition: at 45.8 µM (top of the series); note: potency is the fitted concentration of half-maximal effect; nearly all actives have a fitted effect of over 65% in size
Procedure, shortened: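 Cells were genome-edited human myoblasts carrying a HiBit tag on endogenous HLA-B. They were treated with IFN-beta (4.0 ng/ml) and titrated compounds (top 46 uM) for 24 hrs before lytic HiBiT detection.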

[8] = target: Cytochrome P450 2D6 (Homo sapiens) (UniProt P10635); test: Cytochrome P450 family 2 subfamily D member 6 (CYP2D6) small molecule antagonists: luciferase biochemical (cell-free) qHTS assay (AID 1645840; active = well fitted curve in the direction sought with a large enough effect in the repeat runs; inconclusive = weak or mixed curves; inactive = no such curve, though single readings can be large; an effect the other way counts as inactive or inconclusive; note: nearly all actives have a fitted effect of over 55% in size)
UniProt P10635, sequence (P10635 whole entry, looked up): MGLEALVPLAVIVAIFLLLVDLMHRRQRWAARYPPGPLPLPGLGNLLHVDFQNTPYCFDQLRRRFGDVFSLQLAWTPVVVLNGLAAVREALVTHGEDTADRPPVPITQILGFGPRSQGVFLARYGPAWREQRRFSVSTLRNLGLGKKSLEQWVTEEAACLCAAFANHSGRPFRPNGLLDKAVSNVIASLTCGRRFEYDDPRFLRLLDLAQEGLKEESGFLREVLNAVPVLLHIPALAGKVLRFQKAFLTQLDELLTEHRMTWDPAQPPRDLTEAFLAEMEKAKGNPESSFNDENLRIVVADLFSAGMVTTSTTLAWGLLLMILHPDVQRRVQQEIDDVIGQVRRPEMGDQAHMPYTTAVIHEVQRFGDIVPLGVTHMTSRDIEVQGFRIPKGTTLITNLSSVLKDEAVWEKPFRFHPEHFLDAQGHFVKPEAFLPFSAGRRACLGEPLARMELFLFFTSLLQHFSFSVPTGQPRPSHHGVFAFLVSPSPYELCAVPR
Procedure, shortened: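 P450-Glo luminescent screen: recombinant CYP2D6 enzyme–proluciferin substrate mix preincubated with compound 10 min at room temperature, then NADPH regeneration added for 1 h at room temperature. Detection reagent added for 20 min; luciferin light read as relative luminescence units.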

[9] = Quantitative High-Throughput drug screen in 47 multiple myeloma cell lines against the NCATS MIPE library collection: Karpas417_ECACC cell viability assay (AID 1918961); conditions: Karpas417 myeloma viability, CellTiter-Glo ATP luminescence, 48 h; series mostly up to 45.8 µM; note: potency is the fitted concentration of half-maximal effect
Procedure, shortened: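 We plated 500 myeloma cells per well, pinned in MIPE 4.0 compounds, and incubated for 48 hours at 37C. ATP was then quantified with CellTiter-Glo, with DMSO and media-only wells defining 100% and 0%.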

[10] = Quantitative High-Throughput drug screen in 47 multiple myeloma cell lines against the NCATS MIPE library collection: JIM1_ECACC cell viability assay (AID 1918964; note: potency is the fitted concentration of half-maximal effect)
Procedure, shortened: (§3)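 Primary qHTS used for cherry-picking: cells at 500/well, library compounds for 48 h (37C, 5% CO2), luminescent ATP assay.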

[11] = Quantitative High-Throughput drug screen in 47 multiple myeloma cell lines against the NCATS MIPE library collection: KMS21BM_JCRB cell viability assay (AID 1918974); conditions: ATP luminescence, 48 h; viability: at 45.8 µM (top of the series); note: potency is the fitted concentration of half-maximal effect
Procedure, shortened: as §3

[12] = Quantitative High-Throughput drug screen in 47 multiple myeloma cell lines against the NCATS MIPE library collection: LP1_DSMZ cell viability assay (AID 1918982); note: nearly all actives have a fitted effect of over 35% in size; note: potency is the fitted concentration of half-maximal effect
Procedure, shortened: (§4)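 Plated at 500 cells per well, myeloma lines received MIPE 4.0 compounds by pin tool. Following 48 h culture at 37 °C, CellTiter-Glo luminescence gave viability relative to DMSO and media-only controls.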

[13] = Quantitative High-Throughput drug screen in 47 multiple myeloma cell lines against the NCATS MIPE library collection: L363_DSMZ cell viability assay (AID 1918984); conditions: L363 myeloma viability, CellTiter-Glo ATP luminescence, 48 h; series mostly up to 45.8 µM; note: nearly all actives have a fitted effect of over 40% in size; note: potency is the fitted concentration of half-maximal effect
Procedure, shortened: as §4

[14] = qHTS for identification of novel therapeutic agents for treatment of microphthalmiaassociated transcription factor (MiT) renal cell carcinoma (RCC) (AID 1963991; calls by dose curve; note: potency is the fitted concentration of half-maximal effect); conditions: TFE3-RCC UOK109 viability, CellTiter-Glo, 48 h; active = Z-AUC below -0.8 in all three lines
Procedure, shortened: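 Curves over 11 concentrations were fitted to CellTiter-Glo luminescence, scaled between empty wells (0%) and DMSO (100%) viability. Cells were UOK109, UOK124 and UOK145 TFE3-fusion RCC lines at 500/well, exposed 48 hours at 37 C.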

[15] = Primary fluorescence-based thiol-reactive (MSTI) qHTS assay for identification of artifact compounds. (AID 1845221);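 note: potency is the fitted concentration of half-maximal effect; thiol-reactive compounds lower the probe fluorescence signal; nearly all actives have a fitted effect of over 65% in size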
Procedure, shortened: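 Thiol-reactive compounds detected by quenching of 4 uM MSTI fluorescence (525/598 nm) after 1 h room-temperature dark incubation in PBS pH 7.4, 2% DMSO. qHTS titration; percent inhibition Hill-fitted against Acetyl-MSTI/MSTI controls.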

[16] = Primary redox qHTS assay for identification of artifact compounds. (AID 1845223); conditions: Amplex Red/HRP redox cycling with DTT, fluorescence; series mostly up to 53.8 µM; note: potency is the fitted concentration of half-maximal effect
Procedure, shortened: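 Amplex Red (25 uM) and HRP (250 mU/mL) in HBSS, with compounds for 15 min, then 250 uM DTT for 30 min, room temperature, dark. Fluorescence 525/598 nm read; normalized to DMSO and 10 uM DA3003; Hill fit.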

[17] = qHTS of pediatric cancer cell lines to identify multiple opportunities for drug repurposing: Primary screen for RD cells (AID 1347104); conditions: RD rhabdomyosarcoma viability, CellTiter-Glo luminescence, 48 h; activity change, negative = cytotoxic: at 46 µM (top of the series); note: potency is the fitted concentration of half-maximal effect; nearly all actives have a fitted effect of over 55% in size
Procedure, shortened: as §1

UISO = test: qHTS assay to identify novel small-molecules to repurpose for Merkel cell carcinoma treatment (AID 1296009); conditions: MCC and control cell lines, CellTiter-Glo viability, 72 h; series mostly up to 46 µM; note: potency is the fitted concentration of half-maximal effect; nearly all actives have a fitted effect of over 60% in size
Procedure, shortened: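 After compound transfer in DMSO, plates were kept 72 hr at 37 degree celsius. Luminescent ATP signal from CellTiter-Glo served as viability measure, normalized against DMSO and no-cell controls.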

[18] = qHTS assay to identify inhibitors of the type 1 interferon - major histocompatibility complex class I in skeletal muscle: Counter screen cell viability and HiBit confirmation (AID 1347412); conditions: iHSKM muscle cells + IFN-b, HiBiT or CellTiter-Glo, 24 h; note: potency is the fitted concentration of half-maximal effect; nearly all actives have a fitted effect of over 60% in size
Procedure, shortened: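 HLA-B*08:01–HiBiT knock-in immortalized human myoblasts (C25cl48) stimulated with 4.0 ng/ml human IFN-beta and dosed with compound in a 12-point 1:3 titration (top final 46 uM). After 24 hrs at 37 C, HiBiT lytic luminescence or CellTiter Glo ATP read out.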

[19] = test system: Zika virus NS2B-NS3 protease (linked construct); test: Primary screen NINDS Rhodamine qHTS for Zika virus inhibitors (AID 1347160); conditions: activity change, negative = inhibition: at 57.1 µM (top of the series) unless noted; note: nearly all actives have a fitted effect of over 55% in size
Procedure, shortened: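 In 10 mM Tris-HCl pH 8.0 containing 0.01% Tween 20, linked NS2B-NS3 protease (25 nM final) is exposed to test compounds for 15 min. Cleavage of 1.5 microM Rhodamine110 substrate is tracked by fluorescence over 15 min.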
Tags give direction and shape of the fitted curve.

## O=C(Nc1nc2cccc(-c3ccc(CN4CCS(=O)(=O)CC4)cc3)n2n1)C1CC1
[1]
  Potency: inconclusive: 23.5 µM [cytotoxic, single point]
[2]
  Potency: active: 19.3 µM
[3]
  Potency: active: 10.5 µM
[4]
  Potency: active: 27.3 µM
[5]
  Potency: inconclusive: 20.9 µM [cytotoxic, partial curve]
[6]
  Potency: inconclusive: 16.6 µM [cytotoxic, partial curve]
[7]
  Potency: inconclusive: 16.5 µM [inhibitor, partial curve]
[8]
  Potency: inactive
[9]
  Potency: active: 1.66 µM
[10]
  Potency: active: 5.9 µM
[11]
  Potency: inconclusive: 37.2 µM [rising, partial curve, poor fit]
[12]
  Potency: active: 20.9 µM
[13]
  Potency: inconclusive: 0.0743 µM [cytotoxic, full curve, poor fit]
[14]
  Potency: inconclusive: 29.6 µM [falling, single point]

## C=C1[C@@H](OC(C)=O)CC[C@@]2(C)[C@@H](OC(C)=O)[C@H](OC(C)=O)C3=C(C)C[C@H](OC(=O)C(C)CC)[C@@H]([C@@H](OC(C)=O)[C@H]12)C3(C)C (stereo not given in full)
[15]
  Potency: inconclusive: 7.07 µM [inhibitor, partial curve, poor fit]
[16]
  Potency: inconclusive: 3.54 µM [activator, partial curve, poor fit]

## COc1cc2c(cc1O)CCC1C2CC[C@@]2(C)C1CC[C@@H]2O (stereo not given in full)
[1]
  Potency: inconclusive: 5.9 µM [cytotoxic, full curve]
[2]
  Potency: inconclusive: 4.32 µM [cytotoxic, full curve]
[3]
  Potency: inconclusive: 1.87 µM [cytotoxic, full curve]
[4]
  Potency: inconclusive: 3.43 µM [cytotoxic, full curve]
[5]
  Potency: inconclusive: 1.05 µM [cytotoxic, full curve]
[17]
  Potency: inconclusive: 3.32 µM [cytotoxic, full curve]
[6]
  Potency: inconclusive: 2.96 µM [cytotoxic, full curve]
[9]
  Potency: inactive
[10]
  Potency: inconclusive: 0.0093 µM [cytotoxic, full curve, poor fit]
[11]
  Potency: inconclusive: 2.35 µM [cytotoxic, partial curve, poor fit]
[12]
  Potency: inconclusive: 3.72 µM [cytotoxic, full curve]
[13]
  Potency: inconclusive: 0.935 µM [cytotoxic, full curve, poor fit]
[14]
  Potency: inconclusive: 16.6 µM [falling, partial curve]
UISO
  Potency: inconclusive: 2.96 µM [inhibitor, full curve]

## CN1CCN(C2CCC(n3cc(-c4ccc(Oc5ccccc5)cc4)c4c(N)ncnc43)CC2)CC1 (stereo not given)
[18]; HiBiT
  Potency: active: 15.7 µM
[18]; Viability
  Potency: active: 11.1 µM

## CC(=O)OC1[C@H]2[C@@H](C[C@@H](C)[C@@H]3C=CC(=O)[C@@]13C)OC(=O)[C@@H]2C (stereo not given in full)
[19]
  Potency: inactive
[15]
  Potency: active: 23.8 µM

## OC1(c2ccc(Cl)c(C(F)(F)F)c2)CCN(CCCC(c2ccc(F)cc2)c2ccc(F)cc2)CC1
[1]
  Potency: inconclusive: 26.6 µM [cytotoxic, single point]
[2]
  Potency: active: 11 µM
[3]
  Potency: inconclusive: 29.9 µM [cytotoxic, single point]
[4]
  Potency: active: 21.9 µM
[5]
  Potency: active: 23.7 µM
[17]
  Potency: active: 21.1 µM
UISO
  Potency: active: 10.6 µM

## COC(=O)Nc1nc2ccc(C(=O)c3ccc(F)cc3)cc2[nH]1
[2]
  Potency: inconclusive: 1.37 µM [cytotoxic, full curve]
[3]
  Potency: inconclusive: 0.526 µM [cytotoxic, full curve]
[4]
  Potency: active: 1.72 µM
[17]
  Potency: active: 0.743 µM
[6]
  Potency: inconclusive: 0.935 µM [cytotoxic, full curve]
[7]
  Potency: inconclusive: 1.47 µM [inhibitor, full curve]
[9]
  Potency: inconclusive: 0.264 µM [cytotoxic, full curve, poor fit]
[10]
  Potency: inconclusive: 0.372 µM [cytotoxic, full curve]
[11]
  Potency: active: 0.296 µM
[12]
  Potency: active: 0.935 µM
[13]
  Potency: inconclusive: 0.296 µM [cytotoxic, full curve]
[14]
  Potency: active: 1.87 µM
[18]; HiBiT
  Potency: inconclusive: 1.4 µM [inhibitor, full curve]
UISO
  Potency: inconclusive: 1.05 µM [inhibitor, full curve]

## COC1CC/C=C(\C)C(=O)Nc2cc(O)cc(c2)CC(C)CC(OC)C(O)C(C)/C=C(\C)C1OC(N)=O (stereo not given)
[16]
  Potency: inconclusive: 14.6 µM [activator, partial curve, poor fit]

## C[C@@H]1CN(c2c(F)c(N)c3c(=O)c(C(=O)O)cn(C4CC4)c3c2F)C[C@H](C)N1
[4]
  Potency: inactive
[8]
  Potency: inactive
[9]
  Potency: inconclusive: 0.0575 µM [rising, full curve, poor fit]
[10]
  Potency: inactive
[11]
  Potency: inconclusive: 18.2 µM [rising, partial curve, poor fit]
[12]
  Potency: inactive
[13]
  Potency: inactive

## CN1CCN(c2c(F)cc3c(=O)c(C(=O)O)cn4c3c2OCN4C)CC1
[4]
  Potency: inactive
[9]
  Potency: inconclusive: 0.0047 µM [rising, full curve, poor fit]
[10]
  Potency: inconclusive: 0.0093 µM [cytotoxic, full curve, poor fit]
[11]
  Potency: inconclusive: 0.0033 µM [rising, full curve, poor fit]
[12]
  Potency: inactive
[13]
  Potency: inactive
[14]
  Potency: inconclusive: 0.00105 µM [full curve, poor fit]
